# Where a SMILES comes first, the peptide text is derived from it. [ ]: non-standard residue; d: D form. The star is where a group is joined. ξ: configuration not given here. Doxorubicin(3'-N) = COc1cccc2c1C(=O)c1c(O)c3c(c(O)c1C2=O)C[C@@](O)(C(=O)CO)C[C@@H]3O[C@H]1C[C@H](N*)[C@H](O)[C@H](C)O1; X10 = CN(CCNC(=O)c1cc(Oc2ccc(NC(=O)Nc3ccc(Cl)c(C(F)(F)F)c3)cc2)ccn1)*; Mal(CH2CH2O)6CH2CH2CO = O=C1C=CC(=O)N1CCOCCOCCOCCOCCOCCOCCC(=O)*; MaleimidoPEG4propanoyl = O=C1C=CC(=O)N1CCOCCOCCOCCOCCC(=O)*; Hexanoyl(6-maleimido) = O=C1C=CC(=O)N1CCCCCC(=O)*; Butanoyl(4-maleimido) = O=C1C=CC(=O)N1CCCC(=O)*; Propanoyl(3-maleimido) = O=C1C=CC(=O)N1CCC(=O)*; PEG6 = NCCOCCOCCOCCOCCOCCOCCC(=O)O; X3 = O=C1C=CC(=O)N1CCOCCOCCC(=O)*; PEG4 = NCCOCCOCCOCCOCCC(=O)O; PEG3 = NCCOCCOCCOCCC(=O)O; PEG2 = NCCOCCOCCC(=O)O; ξN = NC(=O)CC(N)C(=O)O; ξL = CC(C)CC(N)C(=O)O
# Assay: Water solubility test (observation and HPLC)
# Assay type: physicochemical
# Settings: thermodynamic from solid; lyophilized compound dissolved in water; checked by observation and HPLC (>95%)
# Procedure: The compounds prepared in accordance with the examples of the disclosure and the reference compounds C1, C2, C3 and C4 were lyophilized (−70° C.).
row,Compound,solubility [mg/mL]
1,CC(C)CC(NC(=O)C(CC(N)=O)NC(=O)[C@@H](C)NC(=O)[C@@H](C)NC(=O)CCOCCOCCOCCNC(=O)CCN1C(=O)C=CC1=O)C(=O)N(C)CCNC(=O)c1cc(Oc2ccc(NC(=O)Nc3ccc(Cl)c(C(F)(F)F)c3)cc2)ccn1 (stereo partly shown) [QHL-090-compound a] ({Propanoyl(3-maleimido)-PEG3}-[dA][dA][ξN][ξL]-X10),> 10
2,CC(NC(=O)CCOCCOCCNC(=O)CCCN1C(=O)C=CC1=O)C(=O)NC(C)C(=O)NC(CC(N)=O)C(=O)Nc1ccc(COC(=O)N2CC3(C2)C(=O)[O][Pt-2]([NH3+])([NH3+])[O]C3=O)cc1 (stereo not shown) [QHL-098-N-CBP],> 20
3,CC(C)CC(NC(=O)[C@@H](CC(N)=O)NC(=O)[C@@H](C)NC(=O)[C@@H](C)NC(=O)CCOCCOCCNC(=O)CCN1C(=O)C=CC1=O)C(=O)N(C)CCNC(=O)c1cc(Oc2ccc(NC(=O)Nc3ccc(Cl)c(C(F)(F)F)c3)cc2)ccn1 (stereo partly shown) [QHL-087-compound a] ({Propanoyl(3-maleimido)-PEG2}-[dA][dA][dN][ξL]-X10),> 10
4,COc1cccc2c1C(=O)c1c(O)c3c(c(O)c1C2=O)C[C@@](O)(C(=O)CO)C[C@@H]3O[C@H]1C[C@H](NC(=O)[C@H](CC(C)C)NC(=O)[C@H](CC(N)=O)NC(=O)[C@H](C)NC(=O)[C@H](C)NC(=O)[C@H](CCC(N)=O)NC(=O)CCCCCN2C(=O)C=CC2=O)[C@H](O)[C@H](C)O1 [QHL-134-DOX] ({Hexanoyl(6-maleimido)}-QAANL-{Doxorubicin(3'-N)}),> 5
5,COc1cccc2c1C(=O)c1c(O)c3c(c(O)c1C2=O)C[C@@](O)(C(=O)CO)C[C@@H]3O[C@H]1C[C@H](NC(=O)[C@H](CC(C)C)NC(=O)[C@H](CC(N)=O)NC(=O)[C@H](C)NC(=O)[C@H](C)NC(=O)[C@H](CC(=O)O)NC(=O)CCOCCOCCOCCOCCNC(=O)CCCN2C(=O)C=CC2=O)[C@H](O)[C@H](C)O1 [QHL-078-DOX] ({Butanoyl(4-maleimido)-PEG4}-DAANL-{Doxorubicin(3'-N)}),> 25
6,C[C@@H](NC(=O)CCOCCOCCOCCNC(=O)CCN1C(=O)C=CC1=O)C(=O)N[C@H](C)C(=O)N[C@H](CC(N)=O)C(=O)Nc1ccc(COC(=O)N2CC(C)(C)c3ccc(NC(=O)c4cccnc4NCc4ccncc4)cc32)cc1 [QHL-086-Motesani],> 20
7,COc1cccc2c1C(=O)c1c(O)c3c(c(O)c1C2=O)C[C@@](O)(C(=O)CO)C[C@@H]3O[C@H]1C[C@H](NC(=O)[C@H](CC(C)C)NC(=O)[C@H](CC(N)=O)NC(=O)[C@H](C)NC(=O)[C@H](C)NC(=O)[C@H](CC(=O)O)NC(=O)CCOCCOCCOCCOCCOCCOCCN2C(=O)C=CC2=O)[C@H](O)[C@H](C)O1 [QHL-036-DOX] ({Mal(CH2CH2O)6CH2CH2CO}-DAANL-{Doxorubicin(3'-N)}),> 30
8,COc1cccc2c1C(=O)c1c(O)c3c(c(O)c1C2=O)C[C@@](O)(C(=O)CO)C[C@@H]3O[C@H]1C[C@H](NC(=O)[C@H](CC(C)C)NC(=O)[C@H](CC(N)=O)NC(=O)[C@H](C)NC(=O)[C@H](C)NC(=O)[C@H](CC(=O)O)NC(=O)CCOCCOCCOCCNC(=O)CCCN2C(=O)C=CC2=O)[C@H](O)[C@H](C)O1 [QHL-072-DOX] ({Butanoyl(4-maleimido)-PEG3}-DAANL-{Doxorubicin(3'-N)}),> 25
9,COc1cccc2c1C(=O)c1c(O)c3c(c(O)c1C2=O)C[C@@](O)(C(=O)CO)C[C@@H]3O[C@H]1C[C@H](NC(=O)[C@H](CC(C)C)NC(=O)[C@H](CC(N)=O)NC(=O)[C@H](C)NC(=O)[C@H](C)NC(=O)[C@H](CCC(=O)O)NC(=O)CCOCCOCCN2C(=O)C=CC2=O)[C@H](O)[C@H](C)O1 [QHL-021-DOX] (X3-EAANL-{Doxorubicin(3'-N)}),> 20
10,COc1cccc2c1C(=O)c1c(O)c3c(c(O)c1C2=O)C[C@@](O)(C(=O)CO)C[C@@H]3O[C@H]1C[C@H](NC(=O)[C@H](CC(C)C)NC(=O)[C@H](CC(N)=O)NC(=O)[C@H](C)NC(=O)[C@H](C)NC(=O)[C@H](CCSC)NC(=O)CCCCCN2C(=O)C=CC2=O)[C@H](O)[C@H](C)O1 [QHL-126-DOX] ({Hexanoyl(6-maleimido)}-MAANL-{Doxorubicin(3'-N)}),> 2
11,COc1cccc2c1C(=O)c1c(O)c3c(c(O)c1C2=O)C[C@@](O)(C(=O)CO)C[C@@H]3O[C@H]1C[C@H](NC(=O)[C@H](CC(C)C)NC(=O)[C@H](CC(N)=O)NC(=O)[C@H](C)NC(=O)[C@H](C)NC(=O)CCOCCOCCNC(=O)CCN2C(=O)C=CC2=O)[C@H](O)[C@H](C)O1 [QHL-087-DOX],> 10
12,C[C@H](NC(=O)CCOCCOCCNC(=O)CCN1C(=O)C=CC1=O)C(=O)N[C@@H](C)C(=O)N[C@@H](CC(N)=O)C(=O)Nc1ccc(COC(=O)OCC(=O)[C@]2(O)CCC3[C@H]4CCC5=CC(=O)C=C[C@@]5(C)C4C(=O)C[C@]32C)cc1 (stereo partly shown) [QHL-086-prednisone],> 10
13,COc1cccc2c1C(=O)c1c(O)c3c(c(O)c1C2=O)C[C@@](O)(C(=O)CO)C[C@@H]3O[C@H]1C[C@H](NC(=O)[C@H](CC(C)C)NC(=O)[C@H](CC(N)=O)NC(=O)[C@H](C)NC(=O)[C@H](C)NC(=O)[C@H](CCC(=O)O)NC(=O)CCOCCOCCOCCOCCN2C(=O)C=CC2=O)[C@H](O)[C@H](C)O1 [QHL-023-DOX] (MaleimidoPEG4propanoyl-EAANL-{Doxorubicin(3'-N)}),> 25
14,COc1cccc2c1C(=O)c1c(O)c3c(c(O)c1C2=O)C[C@@](O)(C(=O)CO)C[C@@H]3O[C@H]1C[C@H](NC(=O)[C@H](CC(C)C)NC(=O)[C@H](CC(N)=O)NC(=O)[C@H](C)NC(=O)[C@H](C)NC(=O)CCOCCOCCOCCOCCNC(=O)CCCN2C(=O)C=CC2=O)[C@H](O)[C@H](C)O1 [QHL-105-DOX] ({Butanoyl(4-maleimido)-PEG4}-AANL-{Doxorubicin(3'-N)}),> 10
15,COc1cccc2c1C(=O)c1c(O)c3c(c(O)c1C2=O)C[C@@](O)(C(=O)CO)C[C@@H]3O[C@H]1C[C@H](NC(=O)[C@H](CC(C)C)NC(=O)[C@H](CC(N)=O)NC(=O)[C@H](C)NC(=O)[C@H](C)NC(=O)[C@H](Cc2ccc(O)cc2)NC(=O)CCCCCN2C(=O)C=CC2=O)[C@H](O)[C@H](C)O1 [QHL-132-DOX] ({Hexanoyl(6-maleimido)}-YAANL-{Doxorubicin(3'-N)}),> 2
16,C[C@H](NC(=O)CCOCCOCCOCCN1C(=O)C=CC1=O)C(=O)N[C@@H](C)C(=O)NC(CC(N)=O)C(=O)Nc1ccc(COC(=O)OCC(=O)[C@@]2(O)CCC3[C@H]4CCC5=CC(=O)C=C[C@@]5(C)C4C(=O)C[C@]32C)cc1 (stereo partly shown) [QHL-006-prednisone],> 10
17,C[C@@H](NC(=O)CCOCCOCCOCCNC(=O)CCN1C(=O)C=CC1=O)C(=O)N[C@H](C)C(=O)N[C@H](CC(N)=O)C(=O)Nc1ccc(COC(=O)N(C)CCNC(=O)c2cc(Oc3ccc(NC(=O)Nc4ccc(Cl)c(C(F)(F)F)c4)c(F)c3)ccn2)cc1 [QHL-089-compound b],> 20
18,CO[C@@]12[C@@H]3N[C@@H]3CN1C1=C(C(=O)C(NC(=O)OCc3ccc(NC(=O)[C@@H](CC(N)=O)NC(=O)[C@@H](C)NC(=O)[C@@H](C)NC(=O)CCOCCOCCOCCNC(=O)CCN4C(=O)C=CC4=O)cc3)=C(C)C1=O)[C@@H]2COC(N)=O [QHL-089-mitomycin],> 20
19,COc1cccc2c1C(=O)c1c(O)c3c(c(O)c1C2=O)C[C@@](O)(C(=O)CO)C[C@@H]3O[C@H]1C[C@H](NC(=O)[C@H](CC(C)C)NC(=O)[C@H](CC(N)=O)NC(=O)[C@H](C)NC(=O)[C@H](C)NC(=O)[C@H](CCC(=O)O)NC(=O)CCOCCOCCOCCOCCOCCOCCNC(=O)CCCN2C(=O)C=CC2=O)[C@H](O)[C@H](C)O1 [QHL-081-DOX] ({Butanoyl(4-maleimido)-PEG6}-EAANL-{Doxorubicin(3'-N)}),> 30

# Source: patent publication US20230414771A1, “PREPARATION AND USE OF IMMUNOSTIMULATORY CONJUGATED COMPLEXES FOR TARGETED DELIVERY AND ACTIVATION” (YAFEI SHANGHAI BIOLOGY MEDICINE SCIENCE & TECHNOLOGY CO., …, priority 2020, published 2023)
